Assay results from the antibiotic and cytotoxicity screens of Wong et al. (2023).
The list shows a part of the results.

Legend:
[1] = tested on: HSkMC (human skeletal muscle cells); test: cytotoxicity call (relative viability < 0.9); settings: 10 µM
[2] = tested on: HepG2; test: cytotoxicity call (relative viability < 0.9); settings: 10 µM
[3] = tested on: S. aureus RN4220; test: growth inhibition call (relative growth <= 0.2); settings: 50 µM

C[C@H](CO)N1C[C@H](C)[C@H](CN(C)C(=O)Nc2ccc(N3CCN(C)CC3)cc2)OCc2cnnn2CCCC1=O
cytotoxicity call [1]: inactive | cytotoxicity call [2]: inactive | growth inhibition call [3]: inactive

CC(C)NC(=O)Nc1ccc2c(c1)C(=O)N([C@@H](C)CO)C[C@H](C)[C@@H](CN(C)C(=O)Nc1ccc3c(c1)OCO3)O2
cytotoxicity call [1]: inactive | cytotoxicity call [2]: inactive | growth inhibition call [3]: inactive

CC1CCC2C(C)C(O)OC3OC4(C)CCC1C32OO4 (stereo not drawn)
cytotoxicity call [1]: inactive | cytotoxicity call [2]: active | growth inhibition call [3]: inactive

C=CCc1c(C)[nH]c(N)nc1=O
cytotoxicity call [1]: inactive | cytotoxicity call [2]: inactive | growth inhibition call [3]: inactive

NCCN1C(=O)c2[nH]nc(-c3ccccc3)c2[C@H]1c1ccccc1
cytotoxicity call [1]: inactive | cytotoxicity call [2]: active | growth inhibition call [3]: inactive

C[C@@H](O)C#Cc1ccc2c(c1)O[C@@H](CN(C)C(=O)c1ccccc1)[C@@H](C)CN([C@@H](C)CO)S2(=O)=O
cytotoxicity call [1]: inactive | cytotoxicity call [2]: inactive | growth inhibition call [3]: inactive
